About 400 (0.21%) of roughly 190,000 compounds were called active. The inconclusive results got no clear call from the source; some entries with a clear call stand among them for comparison.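 How the source made its calls: active means percent activity GTP binding at least 20 points away from the 100% baseline, either down as inhibitor or up as activator; inconclusive means compound flagged as likely green fluorescent from well-wide comparison; inactive means the rest.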
Target: Cell division control protein 42 homolog (Homo sapiens) (UniProt P60953)
UniProt P60953, sequence (P60953 whole entry, looked up): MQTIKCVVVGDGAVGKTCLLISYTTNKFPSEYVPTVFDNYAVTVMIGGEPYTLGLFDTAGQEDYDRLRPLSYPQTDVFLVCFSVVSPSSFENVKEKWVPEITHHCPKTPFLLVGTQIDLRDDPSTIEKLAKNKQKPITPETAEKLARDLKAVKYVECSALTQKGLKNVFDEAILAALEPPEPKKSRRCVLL
Experiment: wildtype Cdc42 fluorescent GTP binding changes, either direction – biochemical, multiplex bead flow cytometry, Bodipy-GTP, primary screen (AID 761);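 further: median bead fluorescence of bound Bodipy-FL-GTP at 100 nM; 0% = excess unlabeled GTP control and 100% = no compound control; below 100% means less GTP binding so inhibitor and above means activator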
Conditions: GST-Cdc42 beads, at 10 µM, actives lie on both sides

Structure (SMILES) | percent activity (GTP binding)
Cc1ccc(COc2ccsc2C(=O)O)cc1 | active: 120% [activator]
CCOc1ccc(-n2c(C)nc3cc(C(=O)NCc4ccc5c(c4)OCO5)ccc32)cc1 | active: 77%
CC1CCN(C(C)C(=O)Nc2ccccc2-c2ccccc2)CC1 (centres undefined) | inconclusive: 109%
O=C(O)CCCCNS(=O)(=O)/C=C/c1ccccc1 | inconclusive: 97%
CCOC(=O)c1sc(NN=C(C(=O)OC)C(=O)OC)c(C(=O)OCC)c1C | inactive: 98%
C[n+]1ccc(C(=O)N/N=C/c2ccco2)cc1 | inactive: 104%
Cc1ccc(S(=O)(=O)N2CCCCC2)cc1NC(=O)COC(=O)Cc1ccc(Cl)cc1 | inconclusive: 91%
Cc1nc2ncccn2c1-c1csc(Nc2ccccc2)n1 | active: 67%
O=C(CCl)Nc1ccc(Oc2cnc3ccccc3n2)cc1 | inactive: 103%
COC(=O)CN(c1nc(C)cc(OC)n1)S(=O)(=O)c1ccccc1 | inconclusive: 103%
COc1ccccc1CN(Cc1nc2ccccc2c(=O)[nH]1)C(=O)Nc1cccc(C)c1 | inactive: 105%
CCCCN(C(=O)COc1ccc(NC(C)=O)cc1)C1CCS(=O)(=O)C1 (centres undefined) | inactive: 96%
COc1ccccc1-c1c(C)oc2cc(OCC(=O)OCc3ccccc3)ccc2c1=O | inconclusive: 109%
COCCNC(=O)/C(C#N)=C/c1ccc(OCC(=O)NC2CCCCC2)cc1 | inactive: 96%
C(=N\Nc1nc(N2CCCC2)nc(N2CCCC2)n1)/c1ccccc1OCc1ccccc1 | inconclusive: 95%
Cc1ccc(OCc2nnc(SCC(=O)c3cccs3)n2-c2ccccc2)cc1C | inconclusive: 104%
O=[N+]([O-])c1ccccc1/C=C/C=N/n1c(-c2ccco2)n[nH]c1=S | active: 76%
COC(=O)c1cc(C(=O)NCc2ccccc2)c(=O)[nH]c1C | inactive: 100%
Cc1nc2sc(C(=O)Nc3ccccc3)c(N)c2c(C)c1[N+](=O)[O-] | inactive: 97%
COc1ccccc1NC(=O)C1=C(C)NC(=O)NC1c1cccc(OC)c1OC (centres undefined) | inconclusive: 117%

Structure (SMILES) | percent activity (GTP binding)
CC(C)c1csc(CN2CCC(N3CCC(C(=O)N4CCOCC4)CC3)CC2)n1 | inactive: 98%
Cc1ccc2cc3cc(C(=O)N4CC(C)CC(C)C4)oc3nc2c1 (centres undefined) | inconclusive: 102%
COCCSc1ccccc1C(=O)Nc1cc(C)on1 | inconclusive: 106%
COc1ccc(Nc2nc(Nc3ccc(OC)cc3OC)nc(N3CCN(C)CC3)n2)c(OC)c1 | inactive: 101%
CCN(Cc1cnn(C)c1)Cc1nc(C(c2ccccc2)c2ccccc2)no1 | inactive: 97%
CCN1CCN(C(=O)CN(C)S(=O)(=O)c2ccc3ccccc3c2)CC1 | inconclusive: 93%
Cc1ccc(OCc2ccc(C(=O)Nc3ccc(C(N)=O)cc3)o2)c([N+](=O)[O-])c1 | inconclusive: 97%
COc1ccc(CC(=O)c2ccccc2C(=O)O)cc1 | active: 140% [activator]
CCOc1ccccc1C(=O)Nc1nn[nH]n1 | inconclusive: 92%
O=c1[nH]c(N2CCc3ccccc3C2)nc2c1CCC2 | inconclusive: 93%
CCCCC(=O)Nc1cccc(NC(=O)C(C)C)c1 | inconclusive: 107%
COc1ccc(/C=C2\CCn3c2nc2cc(C(=O)O)ccc2c3=O)cc1O | inconclusive: 95%
CC1Cc2ccccc2N1CC(=O)NC(=O)NCc1ccco1 (centres undefined) | inconclusive: 98%
CC(C)(C)c1cc(C(=O)NCCN2CCCC2)cc(C(C)(C)C)c1 | inactive: 100%
CCOc1ccc(C(=O)c2ccc([N+](=O)[O-])cc2Cl)cc1 | inconclusive: 91%
Cc1cccc(NC(=O)CC2Nc3cccc4cccc(c34)NC2=O)c1 (centres undefined) | inconclusive: 109%
CC1(O)CC(=O)N(c2ccccc2)O1 (centres undefined) | inconclusive: 109%
Clc1cccc(Cc2nn[nH]n2)c1 | inactive: 97%
Clc1ccc(Cl)c(OCc2cc(-c3ccccc3Cl)on2)c1 | inconclusive: 105%
COc1cc(C(=O)NCCc2ccc(S(=O)(=O)N3CCCC3)cc2)cc(OC)c1OC | inactive: 98%

Structure (SMILES) | percent activity (GTP binding)
Cn1c(=O)n(Cc2ccc(Cl)cc2)c2ccccc21 | inactive: 101%
O=C(CSc1nc2ccccc2[nH]1)NC1CCS(=O)(=O)C1 (centres undefined) | inconclusive: 107%
O=C1CC(c2ccccc2)CC(O)=C1C=NCCN1CCN(C(=O)Nc2ccccc2)CC1 (centres undefined) | inconclusive: 103%
C/C(=N\Nc1cccc([N+](=O)[O-])c1)c1ccccc1O | inconclusive: 97%
O=C(NNC(=O)C1CCCN(S(=O)(=O)c2cccc(F)c2)C1)C1CC1 (centres undefined) | inconclusive: 93%
COC(=O)C1=C(C(=O)OC)C(c2cc([N+](=O)[O-])ccc2O)c2sc(=O)[nH]c2S1 (centres undefined) | inconclusive: 87%
O=C(Nc1ccccc1)N1CCCC(c2nc(-c3ccc(F)cc3)no2)C1 (centres undefined) | inconclusive: 103%
C=CCN(c1ccccc1)S(=O)(=O)c1cccc(C(=O)Oc2ccc3c(C)cc(=O)oc3c2)c1 | inconclusive: 103%
Cc1ccc2nc(N(CCCN(C)C)C(=O)c3ccco3)sc2c1 | inconclusive: 904%
O=[N+]([O-])c1ccc(/C=C/C2=NN(c3ccccc3)C(c3ccco3)C2)cc1 (centres undefined) | inconclusive: 120%
O=C(CSc1ncnc2ccccc12)NCCc1ccccc1 | inconclusive: 95%
CCN1CCCC1CNC(=O)CSc1cc(=O)n(CC)c2ccccc12 (centres undefined) | inconclusive: 104%
O=C1CC(C(=O)N2CCC(N3CCC(C(=O)NC4CC4)CC3)CC2)c2ccccc21 (centres undefined) | inactive: 92%
CC(C(=O)NC(C)(C)C)N(Cc1cccs1)C(=O)CCN1CCc2ccccc21 (centres undefined) | inactive: 97%
CCc1ccc(NS(=O)(=O)c2ccc3[nH]cc(C(=O)N4CCc5ccccc54)c(=O)c3c2)cc1 | active: 70%
CCOc1ccc(NC(=O)CSc2nc3c([nH]c4ccccc43)c(=O)n2C)cc1 | inconclusive: 98%
CCc1cccc2c(C#N)cn(CC(=O)NCCOC)c12 | inconclusive: 90%
CCc1ccc(C2=NN(S(C)(=O)=O)C(c3cccs3)C2)cc1 (centres undefined) | inconclusive: 107%
CN1CCN(c2ccccc2NC(=O)c2ccc(-c3cccc([N+](=O)[O-])c3)o2)CC1 | inactive: 108%
